Test results from PubChem BioAssay AID504332 (National Center for Advancing Translational Sciences (NCATS), 2011).
“And” between values parts separate entries of the source, which are not always exact repeats. Equal entries are not always repeated. About 31,000 (8.9%) of roughly 350,000 compounds were called active. The shares of active, inactive and inconclusive entries below differ from those in the screen. Calls follow the shape of the dose curve; as a rule, active = well fitted inhibition curve with a large enough effect; inconclusive = small, poorly fitted or top-dose-only effect; inactive = no such curve, though single readings can be large or run the other way. Potencies of inconclusive entries are doubtful fits and often do not repeat. More than one record can exist for a structure, and the calls need not agree.

target: Histone-lysine N-methyltransferase EHMT2 (Homo sapiens) (UniProt Q96KQ7); assay: qHTS Assay for Inhibitors of Histone Lysine Methyltransferase G9a; details: G9a H3K9 monomethylation, AlphaScreen, 2 h; activity, negative = inhibition: at 59 µM (top of the series) unless noted; also: nearly all actives have a fitted effect of over 75% in size
In short: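 Signal arises when biotinylated H3K9 peptide, once monomethylated, bridges streptavidin donor and antibody-captured acceptor beads. Enzyme at 20 nM was preincubated 15 min with test compounds; peptide 500 nM and SAM 20 uM then reacted for 2 h.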
% is scaled to controls: 0 for no effect and ±100 for the full control effect; potency is read from the fitted curve at half-maximal effect; tags tell the direction and shape of the fitted curve.

Sequence of UniProt Q96KQ7 (Q96KQ7 whole entry, looked up): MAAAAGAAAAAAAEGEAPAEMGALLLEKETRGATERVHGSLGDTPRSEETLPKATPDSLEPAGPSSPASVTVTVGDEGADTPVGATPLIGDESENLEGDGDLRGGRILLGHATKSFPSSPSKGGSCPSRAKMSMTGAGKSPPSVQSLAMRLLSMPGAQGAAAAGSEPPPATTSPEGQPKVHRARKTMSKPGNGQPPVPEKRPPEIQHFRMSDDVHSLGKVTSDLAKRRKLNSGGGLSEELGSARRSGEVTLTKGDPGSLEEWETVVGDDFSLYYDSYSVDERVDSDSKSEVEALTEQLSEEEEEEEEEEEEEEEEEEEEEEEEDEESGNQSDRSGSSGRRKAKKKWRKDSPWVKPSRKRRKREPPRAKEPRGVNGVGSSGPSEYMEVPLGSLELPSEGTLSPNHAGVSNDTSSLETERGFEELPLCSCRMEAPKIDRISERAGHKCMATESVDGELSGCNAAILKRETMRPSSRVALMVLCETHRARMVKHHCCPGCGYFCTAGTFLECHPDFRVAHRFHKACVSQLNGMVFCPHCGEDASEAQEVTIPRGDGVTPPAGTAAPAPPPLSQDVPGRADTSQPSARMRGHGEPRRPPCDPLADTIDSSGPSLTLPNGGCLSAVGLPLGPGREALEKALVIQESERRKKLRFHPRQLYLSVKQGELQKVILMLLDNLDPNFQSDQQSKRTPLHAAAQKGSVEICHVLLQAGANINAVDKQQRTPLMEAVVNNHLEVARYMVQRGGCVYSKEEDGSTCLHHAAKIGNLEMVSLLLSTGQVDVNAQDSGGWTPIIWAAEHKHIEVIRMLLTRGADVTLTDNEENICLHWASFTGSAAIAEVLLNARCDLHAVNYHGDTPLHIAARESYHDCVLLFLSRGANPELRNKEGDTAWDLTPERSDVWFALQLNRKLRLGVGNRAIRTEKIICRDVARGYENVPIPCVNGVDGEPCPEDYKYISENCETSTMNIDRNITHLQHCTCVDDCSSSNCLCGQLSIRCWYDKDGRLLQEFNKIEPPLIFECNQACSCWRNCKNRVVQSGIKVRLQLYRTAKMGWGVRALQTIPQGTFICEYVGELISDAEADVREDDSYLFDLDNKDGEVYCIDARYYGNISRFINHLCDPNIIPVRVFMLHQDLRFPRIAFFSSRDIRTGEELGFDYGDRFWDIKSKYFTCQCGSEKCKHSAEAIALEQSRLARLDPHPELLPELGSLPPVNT

SMILES | Potency | activity, negative = inhibition
COc1ccc(-c2noc(-c3ccccc3NC(=O)c3cc(OC)c(OC)c(OC)c3)n2)cc1 | inconclusive: 35.5 µM [inhibitor, partial curve, poor fit] | –
O=C(NCCCn1ccnc1)C(=O)NCC(c1cccnc1)N1CCN(c2ccccc2)CC1 (stereo unspecified) | inconclusive: 89.1 µM [inhibitor, single point] | –
CCCN1CCN(C(=S)Nc2ccc([N+](=O)[O-])cc2)CC1 | active: 28.2 µM | –
COCCNC(=S)Nc1ccc(S(=O)(=O)Nc2cnc3ccccc3n2)cc1 | inconclusive: 50.1 µM [inhibitor, partial curve, poor fit] | –
CCOC(=O)CSc1nc(C)c(Oc2ccc(Cl)cc2Cl)c(=O)[nH]1 | inconclusive: 79.4 µM [inhibitor, single point] | –
COc1ccc(N2C(=O)CC(N3CCC(O)(c4ccc(Br)cc4)CC3)C2=O)cc1 (stereo unspecified) | inconclusive: 44.7 µM [inhibitor, partial curve, poor fit] | –
Cc1ccc(NC(=O)N2CCN(c3ccccn3)CC2)cc1 | inactive | –
COc1cccc(N2C(=O)CC(N3CCN(CCN=CC4=C(O)CC(C)(C)CC4=O)CC3)C2=O)c1 (stereo unspecified) | inactive | –
CC(=O)C(Cc1ccccc1)NC(=O)CN(C)Cc1ccccc1Cl (stereo unspecified) | inconclusive: 79.4 µM [inhibitor, partial curve, poor fit] | –
COc1ccc(C2N(c3ccccc3)CCN2c2ccccc2)cc1O | inconclusive: 31.6 µM [inhibitor, full curve] | –
COc1ccc(NC(=O)C(Cc2ccccc2)n2cccc2)c(OC)c1 (stereo unspecified) | inactive and inconclusive: 50.1 µM [inhibitor, partial curve, poor fit] | –
CN(C)c1ccc(S(=O)(=O)N2CCCCC2)cc1NC(=O)CN1C(=O)NC(C)(c2ccccc2)C1=O (stereo unspecified) | inconclusive: 89.1 µM [inhibitor, single point] | –
O=C(O)c1ccc2c(c1)C(=O)N([C@H](Cc1c3ccccc3cc3ccccc13)C(=O)O)C2=O | – | inactive: 12.4% [at 12.7 µM]
CSCCC(NC(=O)c1ccc(Cl)cc1)C(=O)O (stereo unspecified) | inactive | –
CCN(CC)c1ccc(NC(=S)NC(=O)Cc2ccccc2)cc1 | active: 7.94 µM | –
COc1cc(/C=C\C(=O)NCc2ccc3[nH]c(C)cc3c2)cc(OC)c1OC | inconclusive: 89.1 µM [inhibitor, single point] | –
CC1CCCC(NC(=O)C2N(CCCN3CCCC3)C(=O)C3C(C(=O)Nc4cccc(Cl)c4)C4C=CC32O4)C1C (stereo unspecified) | inconclusive: 89.1 µM [inhibitor, single point] | –
Cc1cc(C(F)(F)F)n2ncc(C(=O)O)c2n1 | inconclusive: 89.1 µM [inhibitor, single point] | –
O=C(COC(=O)Cc1cn2ccsc2n1)Nc1nc2ccccc2s1 | inconclusive: 39.8 µM [inhibitor, single point] | –
CCCCNC(=O)CSc1nc2n[nH]c(C)c2c(=N)n1-c1ccccc1CC | inactive | –
OC(CNC1CCCCC1)COCCOc1ccc(Br)cc1 (stereo unspecified) | inactive | –
COc1ccc(C)cc1NC(=O)C(OC(=O)c1cnccn1)c1ccccc1 (stereo unspecified) | inconclusive: 79.4 µM [inhibitor, partial curve, poor fit] | –

SMILES | Potency | activity, negative = inhibition
CSc1ccc(S(=O)(=O)NCC(=O)OCC(=O)N(C)C2CCCCC2)cc1[N+](=O)[O-] | inconclusive: 50.1 µM [inhibitor, partial curve] | –
CCCOC(=O)/C(C(N)=NCc1ccccc1)=C(\O)OCCC | inactive | –
COc1ccccc1N1CCN(C(=O)CSc2nc(-c3ccc(C(C)C)cc3)no2)CC1 | inconclusive: 0.316 µM [inhibitor, partial curve, poor fit] | –
Cc1ccc(-c2nnc(Nc3ccc4c(c3)nc(C)n4C)c3ccccc23)cc1 | inconclusive: 79.4 µM [inhibitor, single point] | –
Cc1ccc(NCC(=O)c2ccc(C)cc2)cc1 | inconclusive: 89.1 µM [inhibitor, single point] | –
CCOC(=O)c1c(N)nn(C(=O)C(C)(C)C)c1-c1ccccc1 | inconclusive: 0.199 µM [inhibitor, full curve, poor fit] | –
COc1ccc(NC(=O)NC2CCCc3ccccc32)c(OC)c1 (stereo unspecified) | inactive | –
CCN1CCc2c(OCC(=O)Nc3ccc4c(c3)OCCO4)cccc2C1=O | inactive | –
Cc1cc(=O)[nH]c(SCC(=O)Nc2nc3ccccc3s2)n1 | active: 31.6 µM | –
Cn1cc([N+](=O)[O-])c(C(=O)Nc2ccc3c(c2)OCCO3)n1 | inconclusive: 2 µM [inhibitor, partial curve, poor fit] | –
N#Cc1ccccc1NCC(=O)N1CCN(S(=O)(=O)c2ccccc2)CC1 | inconclusive: 7.08 µM [inhibitor, single point] | –
COC(=O)c1ccc(OC(=O)c2ccncc2)cc1O | inconclusive: 56.2 µM [inhibitor, partial curve, poor fit] | –
COc1ccccc1OCC(=O)OCn1c(SC)nnc(C)c1=O | inconclusive: 28.2 µM [inhibitor, single point] | –
O=C(NCc1ccco1)C(c1ccc(F)cc1)N(CC1CCCO1)C(=O)Cn1nnc2ccccc21 (stereo unspecified) | inconclusive: 0.708 µM [inhibitor, full curve, poor fit] | –
Cc1ccc(-n2cc(CN3CCN(Cc4nccn4C)CC3)c(-c3ccc(F)cc3)n2)cc1 | inconclusive: 35.5 µM [inhibitor, partial curve, poor fit] | –
COc1ccc(C(=O)Nc2oc(-c3ccccc3)c(-c3ccccc3)c2C#N)cc1OC | inconclusive: 28.2 µM [inhibitor, partial curve, poor fit] | –
COC(=O)C1=C(C(=O)c2ccccc2)C(c2ccc(OC)c(OC)c2)Nc2nnnn21 (stereo unspecified) | inconclusive: 79.4 µM [inhibitor, single point] | –
CCOC(=O)c1c(C)oc2nc(C)nc(NCCCN3CCN(c4cccc(C)c4)C(C)C3)c12 (stereo unspecified) | inconclusive: 10 µM [inhibitor, partial curve] | –
O=C1N=C(N2CCOCC2)S/C1=C\c1ccc(OS(=O)(=O)c2ccccc2)cc1 | inconclusive: 50.1 µM [inhibitor, partial curve] | –
COC(=O)c1ccc(NC(=O)CSc2nnc(-c3cccnc3)o2)cc1 | inconclusive: 50.1 µM [inhibitor, partial curve] | –
N#CC1=C(N)OC2=C(CCC/C2=C/c2ccoc2)C1c1ccoc1 (stereo unspecified) | active: 15.8 µM | –
C=CCn1c(=O)/c(=C2/SC(C)=C(C)N2CC)s/c1=C1/C(=O)N(CC)C(=S)N1c1ccccc1 | inconclusive: 2.82 µM [inhibitor, partial curve, poor fit] | –

SMILES | Potency | activity, negative = inhibition
CCNC(=S)N1CCN(CC)CC1 | active: 25.1 µM | –
COc1ccc(NC(=O)CNS(=O)(=O)c2ccc(Cl)cc2)cc1 | inconclusive: 14.1 µM [inhibitor, partial curve, poor fit] | –
O=C(Nc1cccc(C(=O)O)c1)/C(=C\c1ccco1)NC(=O)c1ccc(Br)o1 | inconclusive: 25.1 µM [inhibitor, single point] | –
COc1ccc(NC(=O)c2ccc(Cl)c(S(=O)(=O)NCC3CCCO3)c2)c(OC)c1 (stereo unspecified) | inactive | –
CC(=O)C1=C(C)NC(SCC(N)=O)=C(C#N)C1CC(C)C (stereo unspecified) | active: 7.08 µM | –
CCC(=O)NNc1ccc(Br)cc1 | inconclusive: 22.4 µM [inhibitor, partial curve, poor fit] | –
COc1ccc(CCNC(=O)CSc2nnc(-c3ccc(C)cc3)c(-c3ccc(C)cc3)n2)cc1OC | inconclusive: 28.2 µM [inhibitor, single point] | –
Cc1ccn2c(=O)nc(SCC(=O)OCc3ccccc3)nc2c1 | active: 1.12 µM | –
COc1ccc(S(=O)(=O)N2CCN3CCCC3C2)cc1 (stereo unspecified) | inactive | –
O=C(Nc1ccccc1Cl)c1cc(S(=O)(=O)N2CCCC(C(=O)O)C2)ccc1F (stereo unspecified) | inconclusive: 89.1 µM [inhibitor, single point] | –
Cc1cc(=O)[nH]c2nnc(SCCC(C)C)n12 | inactive | –
CCOC(=O)c1c(NC(=O)Nc2ccccc2)sc(C)c1C | active: 39.8 µM | –
COc1ccccc1NC(=O)N1CC=C(c2c[nH]c3ccccc23)CC1 | inconclusive: 25.1 µM [inhibitor, single point] | –
O=C(c1ccc(CS(=O)(=O)c2c(Cl)cccc2Cl)o1)N1CCCC1 | inconclusive: 100 µM [inhibitor, single point] | –
CCN1C(=NCC(C)C)N[C@@H](c2cccc(F)c2)C(C(=O)OC)=C1C | active: 39.8 µM | –
COC(=O)/C(C(C)=O)=C(\C=C\N(C)C)N(C)C | inactive | –
Cc1c(CC(=O)NCC(=O)NCC(=O)O)c(=O)oc2c(C)c3oc4c(c3cc12)CCCC4 | inconclusive: 44.7 µM [inhibitor, partial curve, poor fit] | –
CC(C)(C)C(=O)CC1(O)C(=O)N(Cc2ccccc2)c2ccccc21 (stereo unspecified) | – | inactive: 13.9% [at 0.501 µM]
O=C(O)COc1ccccc1/C=N/NC(=O)CSc1nc2ccccc2n1Cc1ccccc1Cl | inconclusive: 89.1 µM [inhibitor, partial curve, poor fit] | –
Cc1cccc(NC(=O)c2oc3ccc(S(=O)(=O)N4CCCCC4)cc3c2C)c1C | inconclusive: 39.8 µM [inhibitor, single point] | –
COc1ccc(-c2[nH]c(-c3ccc(OC)c(OC)c3)nc2SCC(=O)Nc2ccccc2)cc1 | inactive | –
CCCC(=O)Nc1ccc2c(c1)nc1n2CCSC1 | inconclusive: 1.78 µM [inhibitor, partial curve, poor fit] | –
